Measured values published in the supplement of paper PMC10477191.
± gives the standard deviation of the averaged measurements. Some of the results follow.

Tested on: Drosophila novamexicana
Experiment: attraction index (odor vs solvent trap) (index (-1 to 1)); higher = more attraction to the odorant
Details: odor dose: 10^-2 dilution in mineral oil
Method: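 Two-choice trap assay (odor 10^-2 in mineral oil vs solvent, 20 flies, 24 h) run in a Percival incubator at test temperatures of 10-35 °C and 70% humidity, with flies reared at 18 or 25 °C. Attraction index = (O-C)/n; 10 replicates. The paper excluded the 10 and 35 °C tests because of impaired locomotion.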

[1] = test temperature 15 °C, rearing temperature 18 °C
[2] = test temperature 15 °C, rearing temperature 25 °C
[3] = test temperature 20 °C, rearing temperature 18 °C
[4] = test temperature 20 °C, rearing temperature 25 °C
[5] = test temperature 25 °C, rearing temperature 18 °C
[6] = test temperature 25 °C, rearing temperature 25 °C
[7] = test temperature 30 °C, rearing temperature 18 °C
[8] = test temperature 30 °C, rearing temperature 25 °C

Structure (SMILES) | attraction index [1] | attraction index [2] | attraction index [3] | attraction index [4] | attraction index [5] | attraction index [6] | attraction index [7] | attraction index [8]
COC(=O)c1ccccc1O [methyl salicylate] | 0.0847 ± 0.67 | -0.397 ± 0.23 | -0.213 ± 0.47 | -0.246 ± 0.33 | -0.199 ± 0.27 | 0.203 ± 0.29 | -0.124 ± 0.49 | -0.103 ± 0.32
CC(C)OC(=O)c1ccccc1 [isopropyl benzoate] | -0.00925 ± 0.32 | 0.0382 ± 0.59 | -0.0426 ± 0.48 | 0.00328 ± 0.56 | -0.0973 ± 0.44 | -0.181 ± 0.28 | -0.171 ± 0.43 | -0.378 ± 0.41
COc1ccccc1O [guaiacol] | 0.149 ± 0.75 | -0.195 ± 0.36 | -0.224 ± 0.74 | -0.0986 ± 0.5 | -0.252 ± 0.6 | -0.209 ± 0.44 | -0.155 ± 0.44 | -0.454 ± 0.36
